# Data from the supplement of paper PMC4967469.
# Compound: NC(=O)c1ccc(N(C(N)=O)c2c(F)cccc2F)nc1-c1ccc(F)cc1F [VX-702]
# Experiment: Viability of human cancer cell lines after 72 h of drug (GDSC screen)
# Details: top dose 2 µM; top dose inferred
# Method: (§1)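 Human cancer cell lines in 384-well plates, medium with 10% serum, drug for 72 h over a 256-fold dose range (nine 2-fold or five 4-fold steps up to the top dose). Adherent lines were fixed and stained with the nucleic acid dye Syto60, suspension lines read with resazurin; signal relative to control wells, capped at 0 and 100%. One two-parameter sigmoid per drug and line, fitted in a mixed model over all curves with the slope shared within a line.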
Cell Line,AUC,IC50
"LAMA-84 (chronic myeloid leukaemia, suspension)",0.852,1.59 µM
"LC4-1 (lymphoblastic leukaemia, suspension)",0.984,> 2 µM
"LOUCY (T-cell lymphoblastic leukaemia, suspension)",0.992,> 2 µM
"LS-411N (large intestine, adherent)",0.972,> 2 µM
"LU-134-A (small cell lung carcinoma, suspension)",0.986,> 2 µM
"LU-139 (small cell lung carcinoma, suspension)",0.524,0.148 µM
"LU-165 (small cell lung carcinoma, suspension)",0.988,> 2 µM
"MC116 (B-cell lymphoma, suspension)",0.999,> 2 µM
"ME-1 (acute myeloid leukaemia, suspension)",0.984,> 2 µM
"MEG-01 (chronic myeloid leukaemia, suspension)",0.947,> 2 µM
"MFH-ino (soft tissue, adherent)",0.953,> 2 µM
"MHH-NB-11 (neuroblastoma, adherent)",0.959,> 2 µM
"MHH-PREB-1 (B-cell leukaemia, suspension)",0.98,> 2 µM
"ML-2 (acute myeloid leukaemia, suspension)",0.944,> 2 µM
"MOLP-8 (myeloma, suspension)",0.954,> 2 µM
"MOLT-4 (lymphoblastic leukaemia, suspension)",0.97,> 2 µM
"MONO-MAC-6 (acute myeloid leukaemia, suspension)",0.939,> 2 µM
"MRK-nu-1 (breast, suspension)",0.962,> 2 µM
"MS-1 (small cell lung carcinoma, suspension)",0.964,> 2 µM
"NB17 (neuroblastoma, adherent)",0.984,> 2 µM
"NCI-H64 (small cell lung carcinoma, suspension)",0.995,> 2 µM
"NCI-H69 (small cell lung carcinoma, suspension)",0.982,> 2 µM

# Compound: O=C(c1cc(Cc2n[nH]c(=O)c3ccccc23)ccc1F)N1CCN(C(=O)C2CC2)CC1 [Olaparib]
# Experiment: as above
# Details: top dose 5 µM; screen: GDSC drug entry 1017; top dose inferred
# Method: as §1
Cell Line,AUC,IC50
"LAMA-84 (chronic myeloid leukaemia, suspension)",0.938,> 5 µM
"LC4-1 (lymphoblastic leukaemia, suspension)",0.985,> 5 µM
"LOUCY (T-cell lymphoblastic leukaemia, suspension)",0.986,> 5 µM
"LS-411N (large intestine, adherent)",0.959,> 5 µM
"LU-134-A (small cell lung carcinoma, suspension)",0.932,> 5 µM
"LU-139 (small cell lung carcinoma, suspension)",0.797,3.16 µM
"LU-165 (small cell lung carcinoma, suspension)",0.988,> 5 µM
"MC116 (B-cell lymphoma, suspension)",0.998,> 5 µM
"ME-1 (acute myeloid leukaemia, suspension)",0.983,> 5 µM
"MEG-01 (chronic myeloid leukaemia, suspension)",0.975,> 5 µM
"MFH-ino (soft tissue, adherent)",0.853,> 5 µM
"MHH-NB-11 (neuroblastoma, adherent)",0.981,> 5 µM
"MHH-PREB-1 (B-cell leukaemia, suspension)",0.987,> 5 µM
"ML-2 (acute myeloid leukaemia, suspension)",0.953,> 5 µM
"MOLP-8 (myeloma, suspension)",0.972,> 5 µM
"MOLT-4 (lymphoblastic leukaemia, suspension)",0.929,> 5 µM
"MONO-MAC-6 (acute myeloid leukaemia, suspension)",0.973,> 5 µM
"MRK-nu-1 (breast, suspension)",0.969,> 5 µM
"MS-1 (small cell lung carcinoma, suspension)",0.981,> 5 µM
"NB17 (neuroblastoma, adherent)",0.984,> 5 µM
"NCI-H64 (small cell lung carcinoma, suspension)",0.996,> 5 µM
"NCI-H69 (small cell lung carcinoma, suspension)",0.986,> 5 µM

# Same assay, conditions: top dose 10 µM; screen: GDSC drug entry 1495
Cell Line,AUC,IC50
"LAMA-84 (chronic myeloid leukaemia, suspension)",0.955,> 10 µM
"LC4-1 (lymphoblastic leukaemia, suspension)",0.915,> 10 µM
"LOUCY (T-cell lymphoblastic leukaemia, suspension)",0.973,> 10 µM
"LS-411N (large intestine, adherent)",0.962,> 10 µM
"LU-134-A (small cell lung carcinoma, suspension)",0.938,> 10 µM
"LU-139 (small cell lung carcinoma, suspension)",0.939,> 10 µM
"LU-165 (small cell lung carcinoma, suspension)",0.98,> 10 µM
"MC116 (B-cell lymphoma, suspension)",0.999,> 10 µM
"ME-1 (acute myeloid leukaemia, suspension)",0.95,> 10 µM
"MEG-01 (chronic myeloid leukaemia, suspension)",0.982,> 10 µM
"MFH-ino (soft tissue, adherent)",0.844,9.13 µM
"MHH-PREB-1 (B-cell leukaemia, suspension)",0.963,> 10 µM
"ML-2 (acute myeloid leukaemia, suspension)",0.877,8.11 µM
"MOLP-8 (myeloma, suspension)",0.958,> 10 µM
"MOLT-4 (lymphoblastic leukaemia, suspension)",0.904,8.89 µM
"MONO-MAC-6 (acute myeloid leukaemia, suspension)",0.934,> 10 µM
"MRK-nu-1 (breast, suspension)",0.981,> 10 µM
"MS-1 (small cell lung carcinoma, suspension)",0.96,> 10 µM
"NB17 (neuroblastoma, adherent)",0.932,> 10 µM
"NCI-H69 (small cell lung carcinoma, suspension)",0.952,> 10 µM

# Compound: Cc1cccc(-c2[nH]c(C(C)(C)C)nc2-c2ccc3nccnc3c2)n1 [SB-525334]
# Experiment: as above
# Details: top dose 20 µM; top dose inferred
# Method: as §1
Cell Line,AUC,IC50
"LAMA-84 (chronic myeloid leukaemia, suspension)",0.955,> 20 µM
"LC4-1 (lymphoblastic leukaemia, suspension)",0.938,> 20 µM
"LOUCY (T-cell lymphoblastic leukaemia, suspension)",0.952,> 20 µM
"LS-411N (large intestine, adherent)",0.908,> 20 µM
"LU-134-A (small cell lung carcinoma, suspension)",0.947,> 20 µM
"LU-139 (small cell lung carcinoma, suspension)",0.721,6.44 µM
"LU-165 (small cell lung carcinoma, suspension)",0.918,> 20 µM
"MC116 (B-cell lymphoma, suspension)",0.996,> 20 µM
"ME-1 (acute myeloid leukaemia, suspension)",0.988,> 20 µM
"MEG-01 (chronic myeloid leukaemia, suspension)",0.871,17 µM
"MFH-ino (soft tissue, adherent)",0.97,> 20 µM
"MHH-NB-11 (neuroblastoma, adherent)",0.879,> 20 µM
"MHH-PREB-1 (B-cell leukaemia, suspension)",0.95,> 20 µM
"ML-2 (acute myeloid leukaemia, suspension)",0.99,> 20 µM
"MOLP-8 (myeloma, suspension)",0.828,11.7 µM
"MOLT-4 (lymphoblastic leukaemia, suspension)",0.976,> 20 µM
"MONO-MAC-6 (acute myeloid leukaemia, suspension)",0.953,> 20 µM
"MRK-nu-1 (breast, suspension)",0.851,13.5 µM
"MS-1 (small cell lung carcinoma, suspension)",0.945,> 20 µM
"NB17 (neuroblastoma, adherent)",0.78,9.55 µM
"NCI-H64 (small cell lung carcinoma, suspension)",0.996,> 20 µM
"NCI-H69 (small cell lung carcinoma, suspension)",0.981,> 20 µM

# Compound: CC(C)=CC[C@@H](O)C1=CC(=O)c2c(O)ccc(O)c2C1=O [Shikonin]
# Experiment: as above
# Details: top dose 16 µM; top dose inferred
# Method: as §1
Cell Line,AUC,IC50
"LAMA-84 (chronic myeloid leukaemia, suspension)",0.54,1.29 µM
"LC4-1 (lymphoblastic leukaemia, suspension)",0.38,0.45 µM
"LOUCY (T-cell lymphoblastic leukaemia, suspension)",0.436,0.692 µM
"LS-411N (large intestine, adherent)",0.593,1.9 µM
"LU-134-A (small cell lung carcinoma, suspension)",0.45,0.725 µM
"LU-139 (small cell lung carcinoma, suspension)",0.669,3.4 µM
"LU-165 (small cell lung carcinoma, suspension)",0.431,–
"MC116 (B-cell lymphoma, suspension)",0.612,1.86 µM
"ME-1 (acute myeloid leukaemia, suspension)",0.599,1.91 µM
"MEG-01 (chronic myeloid leukaemia, suspension)",0.356,0.411 µM
"MFH-ino (soft tissue, adherent)",0.482,0.886 µM
"MHH-NB-11 (neuroblastoma, adherent)",0.598,1.91 µM
"MHH-PREB-1 (B-cell leukaemia, suspension)",0.373,0.466 µM
"ML-2 (acute myeloid leukaemia, suspension)",0.443,0.71 µM
"MOLP-8 (myeloma, suspension)",0.156,0.0922 µM
"MOLT-4 (lymphoblastic leukaemia, suspension)",0.373,0.481 µM
"MONO-MAC-6 (acute myeloid leukaemia, suspension)",0.317,0.298 µM
"MRK-nu-1 (breast, suspension)",0.151,0.0949 µM
"MS-1 (small cell lung carcinoma, suspension)",0.58,1.61 µM
"NB17 (neuroblastoma, adherent)",0.24,0.155 µM
"NCI-H64 (small cell lung carcinoma, suspension)",0.312,0.347 µM
"NCI-H69 (small cell lung carcinoma, suspension)",0.752,5.86 µM

# Compound: CCNc1cc(NC2CCC(O)CC2)nc(Nc2ccc3c(ccn3Cc3ccccc3)c2)n1 [CGP-082996 (CINK4)]
# Experiment: as above
# Details: top dose 5.12 µM; top dose inferred
# Method: as §1
Cell Line,AUC,IC50
"LAMA-84 (chronic myeloid leukaemia, suspension)",0.911,> 5.12 µM
"LC4-1 (lymphoblastic leukaemia, suspension)",0.894,> 5.12 µM
"LOUCY (T-cell lymphoblastic leukaemia, suspension)",0.989,> 5.12 µM
"LS-411N (large intestine, adherent)",0.861,> 5.12 µM
"LU-134-A (small cell lung carcinoma, suspension)",0.986,> 5.12 µM
"LU-139 (small cell lung carcinoma, suspension)",0.924,> 5.12 µM
"LU-165 (small cell lung carcinoma, suspension)",0.977,> 5.12 µM
"MC116 (B-cell lymphoma, suspension)",0.903,3.09 µM
"ME-1 (acute myeloid leukaemia, suspension)",0.983,> 5.12 µM
"MEG-01 (chronic myeloid leukaemia, suspension)",0.883,4.91 µM
"MFH-ino (soft tissue, adherent)",0.938,> 5.12 µM
"MHH-NB-11 (neuroblastoma, adherent)",0.964,> 5.12 µM
"MHH-PREB-1 (B-cell leukaemia, suspension)",0.849,3.25 µM
"ML-2 (acute myeloid leukaemia, suspension)",0.964,> 5.12 µM
"MOLP-8 (myeloma, suspension)",0.945,> 5.12 µM
"MOLT-4 (lymphoblastic leukaemia, suspension)",0.992,> 5.12 µM
"MONO-MAC-6 (acute myeloid leukaemia, suspension)",0.969,> 5.12 µM
"MRK-nu-1 (breast, suspension)",0.836,3.01 µM
"MS-1 (small cell lung carcinoma, suspension)",0.947,> 5.12 µM
"NB17 (neuroblastoma, adherent)",0.937,> 5.12 µM
"NCI-H64 (small cell lung carcinoma, suspension)",0.996,> 5.12 µM
"NCI-H69 (small cell lung carcinoma, suspension)",0.948,> 5.12 µM

# IC50 is the fitted dose that halves viability relative to control wells, and lower means more sensitive; where the fit passes the top or lowest dose, that dose stands as a limit. AUC is the area under the same curve over the 256-fold range up to the top dose, as a fraction: 1 means no effect, lower means more sensitive. An inferred top dose is not printed in the source and was worked back from the curve model. For some of these results: Drugs with an entry number were screened twice under separate entries, and the two screens often disagree.
